To fix the notation:
B1: Caulobacter ParB omega fusion; a variant is named by its letters at X, in order, B8GW30 (parent)
chain: MESVVVGEPGMSEGRRGLGRGLSALLGEVDAAPAQAPGEQLGGSREAPIEILQRNPDQPRRTFREEDLEDLSNSIREKGVLQPILVRPSPDTAGEYQIVAGERAWRAAQRAGLKTVPIMVRELDDLAVLEIGIIENVQRADLNVLEEALSYKVLMEKFERTQENIAQTIGKSXSHVANXMRLLXLPDEVQSYLVSGELTAXHARAIAAAADPVALAKQIIEGGLSVRETEALARKAPNLSAGKSKGGRPPRVKDTDTQALESDLSSVLGLDVSIDHRGSTGTLTITYATLEQLDDLCNRLTRGI

Whole data set: some 81,000 sequences, median “one-hybrid fitness for binding parS DNA” near -0.17, cut for the highest 2% near 0.51. The list shows a part of the results.

Variants of B1 are the subject of this test. The experiment in a line: one-hybrid fitness for binding parS DNA (scaled: cognate 1, non-cognate 0); higher = stronger binding. To be noted: with parS DNA site. In outline: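 Fitness here means the log change in variant-to-wild-type read ratio between plasmids sequenced before and after selection. That scale was set so cognate equals 1 and non-cognate equals 0. The selection was a bacterial one-hybrid screen of Caulobacter ParB libraries, four specificity codons randomised, in E. coli USO carrying a HIS3 reporter with the site 19 bp from the promoter, grown 48 hours at 37°C on M9-minus-histidine with 0.1 mM IPTG and 5 mM 3-AT.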
On to KSCG, for which the “one-hybrid fitness for binding parS DNA” value was not above 0.2. With QMGG the figure was not above 0.2. The same measure for PITT: not above 0.2; for HRGK: not above 0.2. With YIQR, the “one-hybrid fitness for binding parS DNA” value is not above 0.2. With WISA the figure was not above 0.2; with VDMP, not above 0.2; with VIFR, not above 0.2.

Take CKDY: the “one-hybrid fitness for binding parS DNA” value was not above 0.2.

Regarding LAKG, the “one-hybrid fitness for binding parS DNA” value is not above 0.2. Take VSVT: the “one-hybrid fitness for binding parS DNA” value is not above 0.2. In the case of LHPP, the “one-hybrid fitness for binding parS DNA” value is not above 0.2. The same measure for QCWG: not above 0.2. With HTTM the figure was not above 0.2; with KYEE, not above 0.2; with QPRS, not above 0.2. With QCLY the figure was not above 0.2; with TYSK, not above 0.2; with TSPY, not above 0.2. As to IAVG, the “one-hybrid fitness for binding parS DNA” value was not above 0.2. The same measure for EEPE: not above 0.2; for IRTP: not above 0.2. The same measure for WARN: not above 0.2; for KHST: not above 0.2; for QHCM: not above 0.2. With HRPS the figure was not above 0.2; with FPER, not above 0.2.

For the variant NPLL, the “one-hybrid fitness for binding parS DNA” value is not above 0.2.

LMEL: the “one-hybrid fitness for binding parS DNA” value is not above 0.2. For PQSW, the “one-hybrid fitness for binding parS DNA” value was not above 0.2.

On to MNIR, for which the “one-hybrid fitness for binding parS DNA” value is not above 0.2. As to RHQA, the “one-hybrid fitness for binding parS DNA” value came to 0.5. With MAAR the figure was not above 0.2; with DGAT, not above 0.2. Take TIQG: the “one-hybrid fitness for binding parS DNA” value was not above 0.2. Take LLQM: the “one-hybrid fitness for binding parS DNA” value was not above 0.2. The same measure for IDRK: not above 0.2. With RWAR the figure was not above 0.2; with SNPW, not above 0.2. The same measure for TDCY: not above 0.2; for GTRI: not above 0.2; for YLTF: not above 0.2. In the case of SRSS, the “one-hybrid fitness for binding parS DNA” value was not above 0.2. For HMRF, the “one-hybrid fitness for binding parS DNA” value was not above 0.2. As for LELG, the “one-hybrid fitness for binding parS DNA” value was not above 0.2.

With VRLR, the “one-hybrid fitness for binding parS DNA” value is not above 0.2.

For TPLF, the “one-hybrid fitness for binding parS DNA” value is not above 0.2. The same measure for CMMT: not above 0.2.

As to HMFS, the “one-hybrid fitness for binding parS DNA” value was not above 0.2. With RRKL the figure was not above 0.2. The same measure for QMYT: not above 0.2. On to TSDF, for which the “one-hybrid fitness for binding parS DNA” value was not above 0.2.

Consider RRDG, for which the “one-hybrid fitness for binding parS DNA” value was determined as 0.888. With FVPL the figure was not above 0.2; with LCGR, not above 0.2. With HFML the figure was not above 0.2; with FVGS, not above 0.2; with GDKS, not above 0.2.

With MHRF, the “one-hybrid fitness for binding parS DNA” value was not above 0.2. The same measure for SPRV: not above 0.2. As for PCVV, the “one-hybrid fitness for binding parS DNA” value was not above 0.2. In the case of APNV, the “one-hybrid fitness for binding parS DNA” value is not above 0.2. Take LPPG: the “one-hybrid fitness for binding parS DNA” value was not above 0.2. In the case of ETPN, the “one-hybrid fitness for binding parS DNA” value is not above 0.2. With GDWT the figure was not above 0.2. The same measure for MELG: not above 0.2; for EQMM: not above 0.2. The same measure for FKTC: not above 0.2; for HHVE: not above 0.2; for CLIW: not above 0.2.

As to STVH, the “one-hybrid fitness for binding parS DNA” value was not above 0.2. With KSGR the figure was not above 0.2; with DAAS, not above 0.2; with HASS, not above 0.2. Take DNNW: the “one-hybrid fitness for binding parS DNA” value is not above 0.2.

Regarding SDGE, the “one-hybrid fitness for binding parS DNA” value was not above 0.2. The same measure for LVKT: not above 0.2; for KGNT: not above 0.2; for TKWA: not above 0.2. Regarding VSSD, the “one-hybrid fitness for binding parS DNA” value is not above 0.2.

As for LDCV, the “one-hybrid fitness for binding parS DNA” value is not above 0.2.

YHVG: the “one-hybrid fitness for binding parS DNA” value was not above 0.2. The same measure for SANK: not above 0.2. With PRQV, the “one-hybrid fitness for binding parS DNA” value is not above 0.2.

Take LWSV: the “one-hybrid fitness for binding parS DNA” value is not above 0.2.

For RTHT, the “one-hybrid fitness for binding parS DNA” value is 0.908. For QPPC, the “one-hybrid fitness for binding parS DNA” value is not above 0.2. With YPSW the figure was not above 0.2; with DMKG, not above 0.2.

For the variant KQKR, the “one-hybrid fitness for binding parS DNA” value was not above 0.2. With SPSS the figure was not above 0.2; with MCIR, not above 0.2. The same measure for NSVS: not above 0.2; for CQMS: not above 0.2; for KKFD: not above 0.2. With ELKG the figure was not above 0.2. With RRDP, the “one-hybrid fitness for binding parS DNA” value is not above 0.2. The same measure for KGNG: not above 0.2; for PKLS: not above 0.2; for LTEE: not above 0.2. Take EAQT: the “one-hybrid fitness for binding parS DNA” value was not above 0.2.

For the variant PDES, the “one-hybrid fitness for binding parS DNA” value is not above 0.2. The same measure for WYTL: not above 0.2; for SKNK: not above 0.2; for QPYV: not above 0.2.

As to YCND, the “one-hybrid fitness for binding parS DNA” value was not above 0.2. With PLAT the figure was not above 0.2; with DCGR, not above 0.2; with HEKR, not above 0.2.

With QQQV, the “one-hybrid fitness for binding parS DNA” value is not above 0.2. With DDNM the figure was not above 0.2; with TKWD, not above 0.2; with PQYT, not above 0.2. The same measure for KVNT: not above 0.2. In the case of VQIV, the “one-hybrid fitness for binding parS DNA” value was not above 0.2.

Consider KDMD, for which the “one-hybrid fitness for binding parS DNA” value was not above 0.2.

Regarding GGPL, the “one-hybrid fitness for binding parS DNA” value is not above 0.2. The same measure for SHYT: not above 0.2. The same measure for NKHL: not above 0.2.

Consider MKRC, for which the “one-hybrid fitness for binding parS DNA” value is not above 0.2. The same measure for TPMS: not above 0.2; for HSAT: not above 0.2.

Turning to GHMC, the “one-hybrid fitness for binding parS DNA” value is not above 0.2.

As to GRDF, the “one-hybrid fitness for binding parS DNA” value was not above 0.2. The same measure for AMHL: not above 0.2. For EKMG, the “one-hybrid fitness for binding parS DNA” value is not above 0.2. The same measure for VTAY: not above 0.2. The same measure for SCHV: not above 0.2; for PSTT: not above 0.2; for GNAD: not above 0.2. With SGLS the figure was not above 0.2; with WSAM, not above 0.2.

As for MIHC, the “one-hybrid fitness for binding parS DNA” value is not above 0.2. With CSYG the figure was not above 0.2; with PTWM, not above 0.2. On to HMWR, for which the “one-hybrid fitness for binding parS DNA” value is not above 0.2.

In the case of KSFG, the “one-hybrid fitness for binding parS DNA” value is not above 0.2. The same measure for AFLI: not above 0.2; for CQTM: not above 0.2; for AFFR: not above 0.2.

In the case of NRTY, the “one-hybrid fitness for binding parS DNA” value was not above 0.2. With TQAW the figure was not above 0.2; with QVWN, not above 0.2.

As to KMTT, the “one-hybrid fitness for binding parS DNA” value is not above 0.2.

Take VAMY: the “one-hybrid fitness for binding parS DNA” value was not above 0.2. In the case of DAYG, the “one-hybrid fitness for binding parS DNA” value is not above 0.2.

YMDY: the “one-hybrid fitness for binding parS DNA” value is not above 0.2. The same measure for SGCT: not above 0.2; for AYLN: not above 0.2. The same measure for LIHT: not above 0.2; for CGNY: not above 0.2. The same measure for IQWG: not above 0.2.

As to QHGG, the “one-hybrid fitness for binding parS DNA” value was not above 0.2.

The values are drawn from a collection of fitness landscapes (doi:10.1016/j.celrep.2020.107928).
